One assay relates to hair follicle organ. Nature of the assay: Hair follicle organ cultured in vitro, length of re-grown hair. To be noted: hair follicles cultured 12 days in the formula of amino acids and vitamins; length measured at Day 12; FIG. 7. The format is cell-based, mice (F1 generation of C3H mated with BALB/C). The source says: At the age of 8 weeks, the F1 generation of C3H mated with BALB/C supplies the hair follicle material. By plucking the whiskers by depilating forceps, an anagen phase of the hair follicle can be induced. After three days of whisker plucking, the mice were killed and the hair follicle samples were harvested. Each selected hair follicle was then carefully isolated from the subcutaneous fat and the connective tissue surrounding the capsule was removed under a stereo-dissection microscope with fine forceps. We picked up the intact hair follicles with average size for the next step of culture, and which is in the early anagen stage, which is determined by the hair follicle conformation. Before culture, the hair fibre was first cut out at the surrounding line of the hair follicle to make the length measurement of hair growth much more easily in the future (FIG. 7). […]
Ten hair follicles were cultured in each treatment. […] The length of the hair growth beginning from the cutting site was measured at Day 12. […]
Hair follicle was observed by the Inverted microscope (Lieca DM, IL) and captured with the image by CCD connecting with a computer. The hair length was analyzed with the computer software: Northern Eclipse image system. The data of hair length were analyzed with the Duncan's new multiple range test by one way analysis of variance (ANOVA) using the SigmaStat program (2002).

The test system of another assay is AGA animal model. The assay is described as follows: AGA (androchronogenetic alopecia) animal model in vivo, topical application. On the set-up: species or system B6CBAF1/j hybrid mouse. As to conditions: topical liposome application, testosterone-induced balding mice, versus balding control; 14 days; FIG. 10. An excerpt:
The spontaneous mutation of C57BL/6J mouse in our lab has an appearance of hair balding with homologous jb/jb genes (FIG. 10). We chose the mutant mice as the female parent. The androchronogenetic alopecia (AGA) animal model was then established by the hybrid of C57BL/6J female×CBA/J male. This hybrid is called the B6CBAF1/j hybrid mouse. […] The female of the hybrid is more sensitive to testosterone than male mice, and therefore is appropriate for use as the human AGA balding mimic^18).

Another assay has as its system graying animal model. Nature of the assay: Graying animal model in vivo, topical application (hair color, melanin level). As to conditions: HSCF packaged in liposome. Further details: species or system mice (hybrid of C3H and BALB/C). The source says:
The graying animal model used to simulate human hair graying and to test the effects of the compositions on hair pigmentation in vivo, is established by the F1 generation. It is derived from the hybrid of the C3H and BALB/C mice, which grow white hair after the treatment with the whiting gel, containing 1-20% hydroquinone and 1-20% glycolic acid. In fact, tyrosinase has been proven to dominantly control the synthesis pathway of melanin. When human ages, the tyrosinase genes in melonocytes gradually become depleted, so white hair grows as a result. We establish a kind of mice with the heterologous tyrosinase gene (Tyr+/Tyr−), the activity of which is easy to inhibit by the treatment of whiting agent like hydroquinone. The BALB/C mice is in white color because of homologous depletion of tyrosinase gene (Tyr−/Tyr−) and the C3H strain with (Tyr+/Tyr+) appear in brown color. Heterologous tyrosinase gene (Tyr+/Tyr−) of the F1 generation is to simulate the genotype of human aging in hair follicles, which is much easier to induce tyrosinase depletion or inactivation to appear in white color. After the treatment with the whiting gel for 7 days, the F1 generation starts to grow white hair. […] The standard curve of melanin is measured at first by the commercial product of melanin.

B1: HSCF: the two growth factors SCF and IGF-I, either the combination (HSCF-I) or the recombinant protein (HSCF-II) (protein)
chain: MKKTQTWILTCIYLQLLLSNPLVKTEGICRNRVTNNVKDVTKLVANLPKDYMITLKYVPGMDVLPSHCWISEMVVQLSDSLTDLLDKFSNISEGLSNYSIIDKLVNIVDDLVECVKENSSKDLKKSFKSPEPRLFTPEEFFRIFNRSINAFKDFVVASETSDCVVSSTLSGGGGKLGGGGSGG[about 80 residues not shown]
modifications: Human HSCF-II
Regarding B1, in the assay with hair follicle organ, the “effect on hair re-growth (hair length)” value was “better than that of SCF and IGF-I each”. The “hair re-growth of hairless follicles” value in the assay with AGA animal model is “enough to stimulate the hair growth”. Besides, the “hair color of the re-grown dorsal hair” value in the assay with graying animal model (topical once a day for two weeks, after whiting gel, versus graying control, FIG. 8) is listed as “much darker than the graying mice of the control”. The “content of melanin in the hair shaft” value in the assay with graying animal model (topical, versus control, P<0.05, OD 475 nm, FIG. 9) is given as “higher”.

Source of the values: patent publication US7524505B2, “Compositions and methods for dual therapies of hair graying and balding in follicular delivery systems” (Schweitzer Biotech Company Ltd., priority 2005, dated 2009).
